Experiments:
[1] = system: NCI-H441 human lung cancer cells; assay: BrdU assay (agonism / safety); assay type: cell-based; details: 10 ug/ml
Experimental: A BrdU assay was performed using the antibodies having improved affinities in order to evaluate safety of the antibodies. NCI-H441 (ATCC Cat. # HTB-174), human lung cancer cells, were suspended in a RPMI 1640 medium (Gibco) (2×10^5 cell/ml) to prepare a suspension, and about 100 ul of the suspension was introduced to each well of a 96-well tissue culture plate (Corning, Lowell, Mass.). The suspension was incubated at 37° C. in 5% (v/v) CO2 conditions for 24 hours, and then the medium was completely removed and replaced with a RPMI 1640 diluted with the antibody. After incubating the suspension at 37° C. in 5% (v/v) CO2 conditions for 21 hours, 5-bromo-2′-deoxyuridine (BrdU) was added and the BrdU assay (Roche, Indianapolis, Ind.) was performed after a further 3 hours of incubation. After denaturing/fixing cells on the plate, an anti-BrdU antibody was added thereto and a substrate was added after an hour to measure a color reaction using an ELISA spectraMax reader (Molecular Devices, Sunnyvale, Calif.) at 370 nm. Media was used as a negative control, and an antibody 5D5 (ATCC Cat. # HB11895 separated from hybridoma cells and purified) well known as an agonist was used as a positive control.

[2] = system: MKN45 gastric cancer cells; assay: MKN45 gastric cancer mouse xenograft model; assay type: in vivo; details: 0.2 mg/kg-10 mg/kg i.v. once a week, 4 doses
Experimental: (§1) In order to identify anti-cancer effects of the 4 types of antibodies having improved affinities, as prepared in Example 5, a decrease in the size of tumor cells in a brain cancer or gastric cancer mouse xenograft model transplanted with U87MG brain cancer cells (Korean Cell Line Bank) or MKN45 gastric cancer cells (Japanese Cancer Research Bank, JCRB, Tokyo, Japan) was observed when the antibodies having improved affinities were administered thereto in vivo.
(§2) For MKN45 model (FIG. 6A), 5×10^6 MKN45 cells (100 uL) were administered via subcutaneous injection to 6 week-old male BALB/C nude mice (SLAC Laboratoris, Shanghai, China). For U87MG model (FIG. 6B), 2.5×10^6 U87MG cells were administered. One wee after the tumor inoculation, the mice were randomized into Vehicle (PBS) or huAbF46-H4-A1 treatment groups at a various doses (0.2 mg/kg-10 mg/kg). Each group consisted of 15 mice. For MKN45 model, each treatment was given once a week via intravenous route, for total of 4 doses. For U87MG model, the treatment was given every 10 days for total of 3 doses. […]

[3] = target: T1, c-Met in MKN45 cells (Homo sapiens, UniProt P08581); assay: Degree of degradation of c-Met (total c-Met ELISA); assay type: cell-based; details: 5 ug/ml, 24 hours
T1 construct: MKN45 gastric cancer cells on which c-Met is expressed; endogenous in cells; host or cells: MKN45 gastric cancer cells (JCRB)
Experimental: In order to identify anti-cancer effects of the 4 types of antibodies having improved affinities, as prepared in Example 5, the degree of degradation of c-Met bound to the antibodies was evaluated. A relative total amount of c-Met was obtained by measuring the change in the total amount of c-Met after the antibody binds to c-Met to degrade c-Met via internalization, and thus the efficacy of the antibody was evaluated.
(§3) MKN45 cells (2×10^5 cells/ml) and each of the antibodies (5 ug/ml) were simultaneously introduced to a 96-well plate and incubated for 24 hours. Then, lysis of the cells treated with antibodies was performed and the change in the total amount of c-Met was measured using a Human total HGF R/c-Met ELISA KIT (R&D systems, DYC358) and analyzed.
as §3, with “In order to identify anti-cancer effects of the 3 types of antibodies having improved affinities, as prepared in Example 11, the degree of degradation of c-Met bound to the antibody was evaluated. MKN45” for “MKN45”, “and a” for “and the”, “change of” for “change in”

[4] = target: human c-Met protein (Homo sapiens, UniProt P08581); assay: Biacore binding affinity to c-Met antigen; details: antibody immobilized on CM5 chip, human c-Met 0.39 nM to 100 nM
Experimental: Affinities of the 4 types of antibodies against c-Met antigen prepared in Example 7 were measured by using a Biacore (GE healthcare). About 80 to 110 RU of each antibody was immobilized on a CM5 chip, 9 different concentrations ranging from 0.39 nM to 100 nM of human c-Met protein, as an antigen, were injected at a rate of 30 ul/min to obtain kon values and koff values as shown in Table 3. Then, KD values were calculated based thereon.

[5] = system: Akt phosphorylation in Caki-1 cells; assay: Akt phosphorylation (phospho-AKT1 Ser473 sandwich ELISA); assay type: cell-based; details: 5 ug/ml, 30 minutes
Text: Cellular processes regulated by Akt include cell proliferation, cell survival, cell size control, and response to nutrient availability, intermediary metabolism, angiogenesis, and tissue invasion. All these processes represent characteristics of cancer and many oncoproteins and tumor suppressors intersect in the Akt pathway, finely regulating cellular functions at the interface of signal transduction and classical metabolic regulation. Thus, as the content of phosphorylated Akt that is an active form increases, the activity of cancer cells increases. Here, the degree of inhibiting Akt phosphorylation by the 4 types of antibodies having improved affinities was evaluated.
To compare agonism of the 4 types of antibodies having improved affinities, as prepared in Example 5, Caki-1 cells (Korean Cell Line Bank) were used to confirm the degree of Akt phosphorylation. Mouse IgG was used as a negative control, and antibody 5D5 (a known agonist) was used as a positive control.
2×10^5 cells/ml of Caki-1 cells were introduced to a 96-well plate, and after 24 hours, each of 5 ug/ml of the antibodies was treated in serum free medium for 30 minutes. Lysis of the cells treated with the antibodies was performed and the degree of Akt phosphorylation was measured using a PathScan phospho-AKT1 (Ser473) chemiluminescent Sandwich ELISA kit (Cell Signaling, cat. no #7134S). […]

[6] = system: U87MG brain cancer cells; assay: U87MG brain cancer mouse xenograft model; assay type: in vivo; details: 0.2 mg/kg-10 mg/kg, every 10 days, 3 doses
Experimental: as §1, §2

Chain of human c-Met protein (P08581 25-1390): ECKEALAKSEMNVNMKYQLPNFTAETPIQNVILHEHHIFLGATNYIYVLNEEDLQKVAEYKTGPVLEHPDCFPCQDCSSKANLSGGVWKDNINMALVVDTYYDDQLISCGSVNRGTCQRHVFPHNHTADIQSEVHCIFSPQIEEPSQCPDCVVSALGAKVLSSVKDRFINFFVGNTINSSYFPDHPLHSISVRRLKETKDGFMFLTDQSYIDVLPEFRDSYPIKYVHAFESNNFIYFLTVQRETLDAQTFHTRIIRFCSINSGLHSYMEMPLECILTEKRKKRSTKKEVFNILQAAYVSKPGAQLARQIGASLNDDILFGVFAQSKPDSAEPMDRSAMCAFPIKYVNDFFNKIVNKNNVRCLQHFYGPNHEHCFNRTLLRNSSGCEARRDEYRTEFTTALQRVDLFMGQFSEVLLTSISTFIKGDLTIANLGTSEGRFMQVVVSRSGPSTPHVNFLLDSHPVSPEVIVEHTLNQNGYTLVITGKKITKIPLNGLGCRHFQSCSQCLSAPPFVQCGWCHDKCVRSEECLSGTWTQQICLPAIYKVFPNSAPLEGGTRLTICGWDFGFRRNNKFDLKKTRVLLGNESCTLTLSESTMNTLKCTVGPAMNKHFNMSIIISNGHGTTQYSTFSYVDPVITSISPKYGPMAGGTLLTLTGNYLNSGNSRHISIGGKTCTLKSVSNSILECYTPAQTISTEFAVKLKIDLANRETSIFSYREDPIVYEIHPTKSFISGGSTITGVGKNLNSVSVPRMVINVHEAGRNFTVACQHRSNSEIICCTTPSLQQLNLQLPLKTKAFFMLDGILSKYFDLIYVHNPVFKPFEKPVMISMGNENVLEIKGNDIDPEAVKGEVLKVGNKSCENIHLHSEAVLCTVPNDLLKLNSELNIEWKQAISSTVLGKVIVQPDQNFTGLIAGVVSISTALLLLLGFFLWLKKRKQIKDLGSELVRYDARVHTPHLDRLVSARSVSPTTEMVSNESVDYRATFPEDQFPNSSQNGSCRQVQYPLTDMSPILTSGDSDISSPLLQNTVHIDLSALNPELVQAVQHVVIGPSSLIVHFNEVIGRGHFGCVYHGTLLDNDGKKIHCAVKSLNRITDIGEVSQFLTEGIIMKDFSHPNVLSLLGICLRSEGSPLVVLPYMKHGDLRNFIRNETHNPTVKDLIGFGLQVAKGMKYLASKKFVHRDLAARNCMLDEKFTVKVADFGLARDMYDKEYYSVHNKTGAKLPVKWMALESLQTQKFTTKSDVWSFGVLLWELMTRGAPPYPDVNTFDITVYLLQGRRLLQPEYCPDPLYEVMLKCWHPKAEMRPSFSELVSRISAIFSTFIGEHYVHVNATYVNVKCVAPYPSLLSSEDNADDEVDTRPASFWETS
T1 sequence (P08581 25-1390): as above

increase of degree of degradation of c-Met compared to cells treated with huAbF46 [3]: about 37% | koff [4]: 4.53e-05 s⁻¹ | kon [4]: 739000 M⁻¹ s⁻¹
B1: huAbF46-H4-A1: affinity-improved huAbF46 IgG with U6-HC7 hinge, light chain from clone L3-1 (CDR-L3 SEQ ID NO: 13) (antibody)
heavy: EVQLVESGGGLVQPGGSLRLSCAASGFTFTDYYMSWVRQAPGKGLEWLGFIRNKANGYTTEYSASVKGRFTISRDNSKNTLYLQMNSLRAEDTAVYYCARDNWFAYWGQGTLVTVSSASTKGPSVFPLAPSSKSTSGGTAALGCLVKDYFPEPVTVSWNSGALTSGVHTFPAVLQSSGLYSLSSVVTVPSSSLGTQTYICNVNHKPSNTKVDKKVEPKSCDCH[left out - human IgG1 Fc]
light: DIQMTQSPSSLSASVGDRVTITCKSSQSLLASGNQNNYLAWHQQKPGKAPKMLIIWASTRVSGVPSRFSGSGSGTDFTLTISSLQPEDFATYYCQQSYSRPYTFGQGTKVEIKRTVAAPSVFIFPPSDEQLKSGTASVVCLLNNFYPREAKVQWKVDNALQSGNSQESVTEQDSKDSTYSLSSTLTLSKADYEKHKVYACEVTHQGLSSPVTKSFNRGEC
safety improved (agonism side effects reduced) in BrdU assay [1]: 25% | tumor growth inhibiting effect (tumor volume) [2]: dose-dependent tumor growth inhibiting effects | degree of Akt phosphorylation relative to huAbF46 (before affinity was improved) [5]: about 49% | tumor growth inhibiting effect (tumor volume) [6]: dose-dependent tumor growth inhibiting effects
